These are yes or no findings as the source states them, for the method shown. Binding seen in cells or lysates may run through a third protein. Some binding calls cover weakened binding; strength is not graded here. Where a sequence is shown, tags or fusion partners need not be part of it.

For four substances, binding results are on record in paper PMC10502657.

The target of one assay is T1, Flag–MLF2 (UniProt Q15773).
T1 sequence: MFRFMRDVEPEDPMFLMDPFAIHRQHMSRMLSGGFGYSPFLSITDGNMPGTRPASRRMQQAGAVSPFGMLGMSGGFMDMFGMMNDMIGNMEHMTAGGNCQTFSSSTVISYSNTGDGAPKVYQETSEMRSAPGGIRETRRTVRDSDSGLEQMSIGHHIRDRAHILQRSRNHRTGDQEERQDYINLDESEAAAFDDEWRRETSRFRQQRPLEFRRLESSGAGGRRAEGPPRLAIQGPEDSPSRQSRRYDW
Description: co-IP; HEK293T cells transfected with tagged proteins, lysed 24 h later (MG132 20 µM for 6 h before lysis); IP buffer 50 mM Tris-HCl pH 7.4, 150 mM NaCl, 1.5 mM MgCl2, 1 mM EDTA, 0.5% NP-40, 0.5% Triton X-100, 10% glycerol; western blot.

In assay [1] the target is T2, MLF2, exogenously expressed (tag not shown) (UniProt Q15773).
T2 sequence: T1 sequence
Description: co-IP; immunoprecipitation assays with deletion mutants of MLF2 and of USP7 (Figure S3C–E); cells and tags not shown.

With GFP–p53 (from UniProt P04637 1-393), in the assay with Flag–MLF2, the binding entry was “binds”.
The same measure, in the same setting: the same measure for “HA–USP7 (from UniProt Q93009 1-1102) (enzyme)”: “binds”.
“USP7 (aa 1–208) (from UniProt Q93009 1-208) (domain or fragment)”: the binding result in assay [1] is on record as “binds”.
Still for that read-out and setting: the same measure for “USP7 (aa 506–1102) (from UniProt Q93009 506-1102) (domain or fragment)”: “binds”.
